# Test results from PubChem BioAssay (NCATS).
# The other results are listed elsewhere or left out. The main result of the screen is listed elsewhere. These columns were measured beside it and carry no call. Compounds called inactive in the main read-out are mostly missing here. The note in brackets gives the kind of curve behind each potency; many fits are weak.
# Assay: qHTS Assay for Lipid Storage Modulators (AID 1519)
# Details: Drosophila S3 cells, BODIPY lipid droplet/cell ratio, laser cytometry, cells loaded with oleic acid
# Summary of the method: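 Cells seeded at 5,000 per well were treated with compounds over a concentration series and loaded with oleic acid (400 uM, as added). Lipid droplet fluorescence (488 nm excitation, 500-530 nm channel) was read by laser-scanning cytometry and normalized to 20 uM Triacsin C.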
# [1] = measured here: cell count channel max response
# [2] = measured here: cell number channel AC50
# [3] = measured here: lipid channel max response
# [4] = measured here: lipid (BODIPY) channel AC50
# Tags tell the direction and shape of the fitted curve.
smiles,measurement,setting,value
COc1ccc(-c2oc3cc(OC)ccc3c(=O)c2O)cc1,max response,[1],68.5%
same,AC50,[2],"35.5 µM [rising, single point]"
same,max response,[3],89.7%
CC1=C(O)C(=O)C=C2C1=CC=C1[C@]2(C)CC[C@@]2(C)C3C[C@](C)(C(=O)O)CC[C@@]3(C)CC[C@@]12C (some centres undefined),max response,[1],-29.7%
same,AC50,[4],"10 µM [falling, partial curve]"
same,max response,[3],-55.8%
COc1ccc(C(=O)O)cc1OC,max response,[1],21.5%
same,AC50,[4],"39.8 µM [rising, single point]"
same,max response,[3],30.8%
O=C(Oc1ccccc1)N1CCC[C@@]2(CCN(Cc3ccccc3)C2)C1,max response,[1],12.8%
same,AC50,[4],"0.00562 µM [rising, full curve, poor fit]"
same,max response,[3],25.1%
C[N+]1(C)CCOC(O)(c2ccc(-c3ccc(C4(O)C[N+](C)(C)CCO4)cc3)cc2)C1 (centres undefined),max response,[1],43.4%
same,AC50,[2],"35.5 µM [rising, single point]"
same,max response,[3],43.6%
O=c1cccc2n1CC1CC2CN2CCCC[C@H]12 (some centres undefined),max response,[1],-15.2%
same,AC50,[2],"0.000891 µM [falling, full curve, poor fit]"
same,max response,[3],8.77%
COc1ccccc1CN1CCCC2(CCN(C(=O)Oc3ccccc3)CC2)C1,max response,[1],26.4%
same,AC50,[4],"0.0141 µM [rising, full curve, poor fit]"
same,max response,[3],38.2%
CC(=O)Oc1ccc(/C=C/c2cc(OC(C)=O)cc(OC(C)=O)c2)cc1,max response,[1],5.96%
same,AC50,[4],"8.91 µM [rising, single point]"
same,max response,[3],8.45%
COc1ccc(CC2NC[C@H](O)[C@H]2OC(C)=O)cc1 (some centres undefined),max response,[1],1.85%
same,AC50,[4],"3.16 µM [falling, full curve]"
same,max response,[3],-61.1%
CC(CO)NC(=O)C1C=C2c3cccc4[nH]cc(c34)C[C@H]2N(C)C1 (some centres undefined),max response,[1],26.1%
same,AC50,[4],"35.5 µM [rising, single point]"
same,max response,[3],44.4%
C[N+]1(C)C2CC(OC(=O)C(CO)c3ccccc3)CC1C1OC12 (centres undefined),max response,[1],18.4%
same,AC50,[4],"12.6 µM [rising, partial curve]"
same,max response,[3],31.3%
CC(C)CN1CCCC2(CCN(C(=O)Oc3ccccc3)CC2)C1,max response,[1],18.9%
same,AC50,[4],"2.82 µM [rising, full curve, poor fit]"
same,max response,[3],31.1%
CCC1C(=O)OC[C@H]1Cc1cncn1C (some centres undefined),max response,[1],20.6%
same,AC50,[4],"11.2 µM [rising, partial curve, poor fit]"
same,max response,[3],40.1%
CC[C@]1(O)CC(O[C@@H]2CC(N(C)C)C(O)C(C)O2)c2c(cc3c(c2O)C(=O)c2c(O)ccc(O)c2C3=O)C1C(=O)OC (some centres undefined),max response,[1],5.92%
same,AC50,[4],"14.1 µM [falling, partial curve]"
same,max response,[3],-45.7%
CN1CCN(C(=O)OC2c3nccnc3C(=O)N2c2ccc(Cl)cn2)CC1 (centres undefined),max response,[1],24%
same,AC50,[4],"5.01 µM [rising, full curve]"
same,max response,[3],31.9%
C=CCN1CC[C@]23CCCCC2[C@H]1Cc1ccc(O)cc13 (some centres undefined),max response,[1],56%
same,AC50,[2],"39.8 µM [rising, single point]"
same,max response,[3],57.7%
O=[N+]([O-])OC1CO[C@H]2C(O[N+](=O)[O-])COC12 (some centres undefined),max response,[1],25.5%
same,AC50,[4],"8.91 µM [rising, partial curve]"
same,max response,[3],41.9%
CS(=O)(=O)Nc1ccc(Cc2noc(-c3ccc4[nH]cc(CCN)c4c3)n2)cc1,max response,[1],39.4%
same,AC50,[2],"17.8 µM [rising, single point]"
same,max response,[3],67.2%
COc1ccc2c3c1O[C@H]1C(=O)CC[C@@]4(O)C(C2)N(CC2CC2)CCC314 (some centres undefined),max response,[1],-11.2%
same,AC50,[2],"0.1 µM [falling, full curve, poor fit]"
same,max response,[3],-12.2%
CCCCC/C=C\C/C=C\C/C=C\C/C=C\CCCC(=O)Nc1ccc(O)cc1,max response,[1],19.7%
same,AC50,[4],"39.8 µM [rising, single point]"
same,max response,[3],33.2%
CCN1C[C@]2(COC(=O)c3ccccc3N3C(=O)C[C@H](C)C3=O)CC[C@H](OC)[C@@]34[C@@H]5C[C@H]6[C@H](OC)[C@H]5[C@](O)(C[C@@H]6OC)[C@@](O)([C@@H](OC)[C@@H]23)[C@@H]14,max response,[1],25%
same,AC50,[4],"39.8 µM [rising, single point]"
same,max response,[3],36.7%
CC[C@@H]1CN2CCc3cc(OC)c(OC)cc3[C@H]2C[C@@H]1C[C@H]1NCCc2cc(OC)c(OC)cc21,max response,[1],-23.1%
same,AC50,[4],"2.51 µM [falling, partial curve]"
same,max response,[3],-44.9%
C[C@@H](CO)NC(=O)[C@@H]1C=C2c3cccc4[nH]cc(c34)C[C@H]2N(C)C1,max response,[1],72.1%
same,AC50,[2],"25.1 µM [rising, partial curve, poor fit]"
same,max response,[3],88.4%
